In PubChem BioAssay AID504832 (National Center for Advancing Translational Sciences (NCATS), 2011):
Among all 310,000 compounds or so, about 18,000 (5.8%) were called active. This list was built around the results that the source calls inconclusive (neither active nor inactive); the mix of calls is not that of the screen. The call rests on the fitted dose curve; in most records, active means well fitted inhibition curve with a large enough effect; inconclusive means small, poorly fitted or top-dose-only effect, or another doubt; inactive means no such curve, though single readings can be large or run the other way. Potencies of inconclusive entries are left out as doubtful fits.
Potency means the concentration at half of the fitted maximal effect; tags describe the fitted curve by direction and shape.

Test: Primary qHTS for delayed death inhibitors of the malarial parasite plastid, 48 hour incubation
Details: P. falciparum luciferase growth in erythrocytes; series mostly up to 28.7 µM
Procedure, shortened: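 Compounds are pin-transferred into medium, infected erythrocytes (2% hematocrit, 0.1% parasitemia final) are added, and plates sit one parasite generation at 37 C in 5% CO2. Detection reagent is then added and luminescence measured.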
For Cc1ccc2cc(CN(CC3CCCO3)C(=S)Nc3ccccc3)c(=O)[nH]c2c1 (configuration not stated), the Potency was inconclusive [inhibitor, single point].
In the case of CN(C)c1ccc(S(=O)(=O)NCC(=O)OCC(=O)c2ccc[nH]2)cc1[N+](=O)[O-], the Potency is reported as “inactive”.
In the case of CCN(CC)S(=O)(=O)c1cc(NC(=O)CO/N=C(\N)c2ccccc2Cl)ccc1C, the Potency is reported as inconclusive [inhibitor, single point].
For CN(Cc1cc(Br)cc(Br)c1N)C1CCCCC1, the Potency was inconclusive [inhibitor, single point].
With N#CCCn1cc(C(N)=O)c(-c2ccc3ccccc3c2)n1 the Potency was inconclusive [inhibitor, single point].
With COC(=O)C1=CN(C2CC2)C=C(C(=O)OC)C1c1ccccc1OC the Potency was active: 11.7 µM.
With COC(=O)[C@@H]1CC[C@@](C)(c2ccc(OC)cc2)C1(C)C the Potency was inconclusive [inhibitor, partial curve, poor fit].
For Cc1ccc(C(=O)CSc2nnc(-c3snnc3C)n2C2CC2)cc1, the Potency was inconclusive [inhibitor, partial curve, poor fit].
For O=C(Nc1ccc(Cl)c(Cl)c1)Nc1cc(C(=O)NC2CC2)ccc1Cl, the Potency was active: 13.1 µM.
With O=C(CSc1nc2cc([N+](=O)[O-])ccc2n1-c1ccc(F)cc1)NC1CCS(=O)(=O)C1 (configuration not stated) the Potency was “inactive”.
In the case of CN(C)c1ccc(-c2nn3c(-c4cccnc4)nnc3s2)cc1, the Potency is reported as inconclusive [inhibitor, partial curve, poor fit].
In the case of Cc1onc(-c2c(Cl)cccc2Cl)c1C(=O)Nc1ccc2c(c1)OCO2, the Potency is reported as inconclusive [inhibitor, single point].
With C=CCn1c(SCC(=O)Nc2cc(C)on2)nc2c([nH]c3ccccc32)c1=O the Potency was “inactive”.
With O=S(=O)(c1ccc(Cl)cc1)c1cnc2ccccc2n1 the Potency was inconclusive [inhibitor, single point].
In the case of COc1ccc(-c2cc(C)no2)cc1S(=O)(=O)N1CCN(c2ccc([N+](=O)[O-])cc2)CC1, the Potency is reported as inconclusive [inhibitor, partial curve, poor fit].
In the case of COc1cccc(NC(=O)CN(c2cccc(C(F)(F)F)c2)S(C)(=O)=O)c1, the Potency is reported as inconclusive [inhibitor, partial curve, poor fit].
In the case of C[C@@H]1CC=C[C@H]2[C@H]1C(=O)N(Cc1ccccc1)[C@H]2c1ccc(-c2ccoc2)cc1F, the Potency is reported as inconclusive [inhibitor, single point].
In the case of O=C(CCc1ccc(S(=O)(=O)N2CCOCC2)cc1)OCc1nc2ccccc2s1, the Potency is reported as “inactive”.
For Cc1ccc(C2=NC3(CCCCC3)N=C2SCC(=O)Nc2ccc3c(c2)OCCO3)cc1, the Potency was inconclusive [inhibitor, partial curve].
For CCc1ccc(NC(=O)C2CCCN(S(=O)(=O)c3ccc4c(c3)CC(C)N4C(C)=O)C2)cc1 (configuration not stated), the Potency was inconclusive [inhibitor, partial curve, poor fit].
With O=C(NCCO)/C(=C\c1ccc([N+](=O)[O-])o1)NC(=O)c1ccccc1 the Potency was inconclusive [inhibitor, single point].
For Cc1ccc(CNc2nc(-c3cccs3)nc3ccccc23)cc1, the Potency was inconclusive [inhibitor, single point].
For Cc1ccc([N+](=O)[O-])c(C(=O)N/N=C/c2cccnc2)c1, the Potency was inconclusive [inhibitor, full curve, poor fit].
In the case of COc1cc(S(=O)(=O)NC2CCCC2)ccc1-n1cnnn1, the Potency is reported as “inactive”.
In the case of CSc1nc(N(C)CCO)c2sc3nc(-c4ccco4)c4c(c3c2n1)CCC4, the Potency is reported as inconclusive [inhibitor, partial curve, poor fit].
In the case of CCOc1ccc(CN2CCN(Cc3nc4c(s3)CCCC4)CC2CCO)cc1 (configuration not stated), the Potency is reported as inconclusive [inhibitor, single point].
In the case of COc1cc2cc(C#N)c(SCC(=O)Nc3cc(C)on3)nc2cc1OC, the Potency is reported as inconclusive [inhibitor, partial curve, poor fit].
With CCn1c(=O)c2c(nc3n2CCCN3CCc2ccc(OC)c(OC)c2)n(C)c1=O the Potency was inconclusive [inhibitor, partial curve].
With COc1ccc(Cl)cc1C(=O)NC(=S)Nc1cc(-c2nc3ccccc3[nH]2)ccc1C the Potency was “inactive”.
With Fc1cccc(/C=N/n2c(C3CCCCC3)n[nH]c2=S)c1 the Potency was “inactive”.
With COc1ccc(S(=O)(=O)/N=C2/C=CC(=O)C(C)=C2C)cc1 the Potency was inconclusive [inhibitor, single point].
For COc1ccc(NC(=O)CCCC(=O)c2ccccc2)c(OC)c1, the Potency was inconclusive [inhibitor, single point].
For COc1ccc(OC)c(Nc2nc(-c3sc(NC(=O)c4ccccc4)nc3C)cs2)c1, the Potency was inconclusive [inhibitor, single point].
For COc1ccc(NC(=O)NCCCCc2ccccc2)cc1, the Potency was inconclusive [inhibitor, single point].
In the case of CCCCCN(C(=O)CCC(=O)OCc1ccc(Cl)cc1Cl)c1c(N)n(CCCC)c(=O)[nH]c1=O, the Potency is reported as inconclusive [inhibitor, single point].
With O=C(CNc1ccc2ccccc2c1)N/N=C/c1cc2ccccc2nc1Cl the Potency was inconclusive [inhibitor, single point].
For O=C(O)CC(c1ccc(C(F)(F)F)cc1)N1Cc2ccccc2C1=O (configuration not stated), the Potency was “inactive”.
For CCN1C(=O)NC(c2cc(Br)ccc2OC)C(C(=O)OC)=C1C (configuration not stated), the Potency was inconclusive [inhibitor, single point].
With N#CCN1CCN(CC(=O)c2ccc(Br)cc2)CC1 the Potency was “inactive”.
In the case of CC(=O)Nc1ccc(-c2csc(NCc3ccccc3)n2)cc1, the Potency is reported as “inactive”.
In the case of COc1cc(C(=O)NC(C)C2CC3CCC2C3)cc(OC)c1OC (configuration not stated), the Potency is reported as “inactive”.
With O=C1Nc2ccccc2O/C1=C\c1c(F)cccc1Cl the Potency was inconclusive [inhibitor, single point].
